Consider 91 molecules from PubChem BioAssay AID360 (National Center for Advancing Translational Sciences (NCATS), 2006).

Out of some 48,000 compounds screened, about 550 (1.1%) were called active. Inconclusive results (about 4%) are left out. Cut-off read from the data, not from the text of the source: active = potency below about 15 µM; inconclusive = mostly about 16 µM to 33 µM; inactive = weaker than that. Some of the results follow. Where only a bound is given, the exact number is not on record here.
Potency is the fitted concentration of half-maximal effect.

Sequence of UniProt P04062 (P04062 whole entry, looked up): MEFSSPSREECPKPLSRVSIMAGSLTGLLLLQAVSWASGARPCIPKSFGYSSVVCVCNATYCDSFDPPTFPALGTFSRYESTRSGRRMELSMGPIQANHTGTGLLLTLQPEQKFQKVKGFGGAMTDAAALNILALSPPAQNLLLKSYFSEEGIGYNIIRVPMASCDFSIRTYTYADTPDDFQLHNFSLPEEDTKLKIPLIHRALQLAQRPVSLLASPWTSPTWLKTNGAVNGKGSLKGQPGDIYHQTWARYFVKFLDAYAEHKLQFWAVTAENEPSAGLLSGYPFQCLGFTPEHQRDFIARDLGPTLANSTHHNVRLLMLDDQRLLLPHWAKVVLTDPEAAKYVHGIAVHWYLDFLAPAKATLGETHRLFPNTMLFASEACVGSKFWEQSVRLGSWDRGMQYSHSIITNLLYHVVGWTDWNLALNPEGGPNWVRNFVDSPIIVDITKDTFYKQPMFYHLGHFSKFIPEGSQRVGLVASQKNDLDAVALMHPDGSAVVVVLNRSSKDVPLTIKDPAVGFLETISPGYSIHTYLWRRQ

The experiment concerns the target Lysosomal acid glucosylceramidase (Homo sapiens) (UniProt P04062). Kind of experiment: Glucocerebrosidase.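 Note: the screen sought inhibitors.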 The settings on record: purified enzyme, resorufin glucoside fluorescence (screen aimed at inhibitors), 20 min. In short, it runs like this:
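Compounds titrated against 0.2 nM normal enzyme, 30 uM resorufin beta-D-glucopyranoside substrate, citrate/phosphate buffer with taurocholate and tween-20, pH 5.9. Reaction ran 20 min at room temperature; fluorescence (Ex 548/Em 600) gave AC50.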
As for `CCOc1cc(N2CCOCC2)c(OCC)cc1NC(=O)c1ccc(=O)n(Cc2ccccc2)n1`, the Potency is inactive: > 76.9 µM.
For the molecule `CC(=O)Nc1cccc(-c2nnc3n2CC(C)S3)c1` (stereo unspecified), the Potency was inactive: > 76.9 µM.
As to `COc1cc(NS(=O)(=O)c2ccc(OC)c(OC)c2)cc(OC)c1`, the Potency was inactive: > 76.9 µM.
With `Cc1c(NC(=O)CSc2ccccn2)c(=O)n(-c2ccccc2)n1C` the figure was inactive: > 76.9 µM.
As to `CCC(=O)Nc1cccc(NC(=O)CSc2nnnn2C2CCCC2)c1`, the Potency was inactive: > 76.9 µM.
With `Cc1cc(=O)oc2cc(OCC3CC(c4ccc(N(C)C)cc4)=NO3)ccc12` (stereo unspecified) the figure was inactive: > 76.9 µM; with `O=C(Nc1ccc(F)cc1F)c1cc2n(n1)C(C(F)(F)F)C1CCCCC1N2` (stereo unspecified), inactive: > 76.9 µM; with `COc1cc2cc(CN(Cc3nnnn3Cc3ccccc3)CC3CCCO3)c(=O)[nH]c2cc1OC` (stereo unspecified), inactive: > 76.9 µM.
`COC(=O)Nc1sc2c(c1C(N)=O)CCCCCC2`: the Potency is inactive: > 76.9 µM.
As to `O=C1CC(c2ccc(S(=O)(=O)NCCOc3ccccc3)cc2)CN1` (stereo unspecified), the Potency is inactive: > 76.9 µM.
Turning to `CNC(=O)N(O)C1N(C)C(=O)N(Cc2ccccc2)C1(C)C` (stereo unspecified), the Potency was inactive: > 76.9 µM.
With `c1ccc(-n2ncc3c(N4CCN(c5ccccn5)CC4)nc(N4CCOCC4)nc32)cc1`, the Potency was inactive: > 76.9 µM.
Consider `COc1ccc2oc(C)c(NC(C)=O)c2c1`, for which the Potency was inactive: > 76.9 µM.
Consider `CSc1nnc(-c2ccccc2)n1C`, for which the Potency was inactive: > 76.9 µM.
With `COc1ccccc1C(=O)Nc1ccccc1N1CCN(S(C)(=O)=O)CC1`, the Potency is inactive: > 76.9 µM.
For the molecule `COC(=O)Cn1cc(C(=O)OC)c2ccccc21`, the Potency is inactive: > 76.9 µM.
With `Cn1ccnc1SCc1cc(=O)[nH]c2ccccc12`, the Potency is inactive: > 76.9 µM.
With `COc1ccc(S(=O)(=O)N2CCCN(CC(=O)Nc3ccc4c(c3)OCO4)CC2)cc1`, the Potency was inactive: > 76.9 µM.
On to `O=C(NC1CCCCCC1)C1CC(=O)N(Cc2ccccc2)C1` (stereo unspecified), for which the Potency was inactive: > 76.9 µM.
As for `CCn1c(SCC(=O)NCc2cccs2)nnc1-c1ccco1`, the Potency was inactive: > 76.9 µM.
As for `O=C(CN1C(=O)NC(Cc2ccccc2)C1=O)Nc1ccccc1` (stereo unspecified), the Potency was inactive: > 76.9 µM.
For the molecule `COc1cccc(C(=O)Nc2ccccc2N2CCOCC2)c1`, the Potency is inactive: > 76.9 µM.
With `CSc1ccccc1NC(=O)c1cccs1` the figure was inactive: > 76.9 µM; with `C=CCn1c(SCC(=O)Nc2ccc3c(c2)OCCO3)nnc1-c1ccco1`, inactive: > 76.9 µM.
Regarding `CCOC(=O)c1[nH]nc(-c2c(O)cc(C)cc2O)c1-c1csc(C)n1`, the Potency was inactive: > 76.9 µM.
In the case of `COc1ccccc1OCCC(=O)OCC(=O)NC(=O)NC(C)(C)C`, the Potency was inactive: > 76.9 µM.
As to `COc1ccc(CN2C(=O)CN=C2Nc2cccc(C)c2C)cc1`, the Potency was inactive: > 76.9 µM.
In the case of `Cc1cc(NC(=O)C2CCCCC2)nc2c1c(=O)oc1ccccc12`, the Potency is inactive: > 76.9 µM.
For `O=C(OCC(CO)OC(CO)n1ccc(=O)[nH]c1=O)c1ccccc1` (stereo unspecified), the Potency is inactive: > 76.9 µM.
As to `Cc1ccccc1CNS(=O)(=O)c1ccc2c(c1)OCCO2`, the Potency is inactive: > 76.9 µM.
Take `CC(=O)NC(CCS(C)(=O)=O)C(=O)Nc1nc(C)cs1` (stereo unspecified): the Potency is inactive: > 76.9 µM.
Consider `O=c1[nH]c2ccc(S(=O)(=O)N3CCN(C4CCCCC4)CC3)cc2[nH]c1=O`, for which the Potency was inactive: > 76.9 µM.
Take `CCOC(=O)NC(=O)CSc1nc(C)cc(C)c1C#N`: the Potency is inactive: > 76.9 µM.
As for `COc1ccccc1C(=O)NCCc1nc2ccccc2n1C`, the Potency was inactive: > 76.9 µM.
As to `COc1ccc(C)cc1-n1nnnc1SCn1nnc2ccccc2c1=O`, the Potency is inactive: > 76.9 µM.
With `O=C(O)c1ccc(NC(=O)C2(c3ccccc3)CCOCC2)cc1`, the Potency is inactive: > 76.9 µM.
With `CC(C)c1nc2oc3c(NCc4ccccn4)ncnc3c2c2c1COC(C)(C)C2` the figure was inactive: > 76.9 µM; with `Cc1cc(C)nc(NC2=NCCN2C(=O)Nc2ccc(Cl)c(Cl)c2)n1`, inactive: > 76.9 µM.
For `CCn1c(=O)c2c(nc(SCc3ccccn3)n2C)n(C)c1=O`, the Potency is inactive: > 76.9 µM.
`COc1cc2c(C(=O)NCCCOC(C)C)cn(CC(C)C)c(=O)c2cc1OC`: the Potency is inactive: > 76.9 µM.
With `CNc1oc(C)nc1S(=O)(=O)c1ccc(C)cc1` the figure was inactive: > 76.9 µM; with `COc1ccc(CCNC(=O)CSc2nc(-c3ccco3)cc(C(F)(F)F)n2)cc1OC`, inactive: > 76.9 µM.
Take `CN(C)CCCNCCCNC(=O)c1ccccn1`: the Potency is inactive: > 76.9 µM.
Turning to `COc1ccc(OC)c(CN2CCCC(C(=O)N3CCCCC3)C2)c1` (stereo unspecified), the Potency is inactive: > 76.9 µM.
`COc1ccccc1N1CCN(C(=O)C2C3C=CC4(CN(Cc5ccccc5Cl)C(=O)C24)O3)CC1` (stereo unspecified): the Potency is inactive: > 76.9 µM.
Take `CC(C)(C)c1[nH]nc2c1C(c1ccc(OC(=O)c3ccco3)cc1)C(C#N)=C(N)O2` (stereo unspecified): the Potency entry was “inactive”.
Take `CCCOP(=O)(c1ccc(N(C)C)cc1)C(O)c1cc(OC)c(OC)c(OC)c1` (stereo unspecified): the Potency was inactive: > 76.9 µM.
For `CCCCNC(=O)C1CCCN(S(=O)(=O)c2ccc(-n3cnnn3)cc2)C1` (stereo unspecified), the Potency is inactive: > 76.9 µM.
Turning to `COc1nc(-c2ccccc2)ccc1-c1noc(C)n1`, the Potency was inactive: > 76.9 µM.
As for `COc1ccc(Cn2nnnc2CN(Cc2cc3cccc(C)c3[nH]c2=O)C2CCCC2)cc1`, the figure is inactive: > 76.9 µM.
`O=C(NC(Cc1ccccc1)c1nc2ccccc2[nH]1)C1CC(=O)N(c2ccc3c(c2)OCCO3)C1` (stereo unspecified): the Potency was inactive: > 76.9 µM.
As for `CC12CCC(C(=O)NCC3CCCO3)(OC1=O)C2(C)C` (stereo unspecified), the figure is inactive: > 76.9 µM.
As for `Cn1c(=O)[nH]c(=O)c2c1nc(N1CCOCC1)n2CCN1CCOCC1`, the figure is inactive: > 76.9 µM.
As for `CCOC(=O)Nc1ccc2c(c1)N(C(=O)CN(CC)CC)c1ccccc1C=C2`, the figure is inactive: > 76.9 µM.
Regarding `COc1ccc(N2CC(C(=O)NCCC3=CCCCC3)CC2=O)cc1` (stereo unspecified), the Potency was inactive: > 76.9 µM.
In the case of `O=C(Nc1nnc(C2CC2)s1)c1cc(-c2ccccc2)nn1-c1ccccc1`, the Potency is inactive: > 76.9 µM.
Turning to `CCOC(=O)N1CCN(C(=O)c2cn(CC(C)C)c(=O)c3c2c2ccccc2n3C)CC1`, the Potency was inactive: > 76.9 µM.
`O=C(NC1CCCC1)c1ccc(S(=O)(=O)N2CCCC2)cc1`: the Potency is inactive: > 76.9 µM.
In the case of `CCOC(=O)C(CC)n1cnc2c(nnn2-c2ccc(C)cc2)c1=O` (stereo unspecified), the Potency was inactive: > 76.9 µM.
As to `Nc1nc(N)nc(-c2ccccn2)n1`, the Potency is inactive: > 76.9 µM.
Turning to `Cc1ccc(-c2cc(-c3ccc(Cl)cc3)c(C#N)c(N)n2)o1`, the Potency is inactive: > 76.9 µM.
`CC(C)CN(CC(C)C)S(=O)(=O)N1CCC(C(=O)NCc2ccccn2)CC1`: the Potency was inactive: > 76.9 µM.
Turning to `CS(=O)(=O)N1CCN(c2ccccc2F)CC1`, the Potency was inactive: > 76.9 µM.
With `CCn1cc(C(=O)NCCCN2CC(C)CC(C)C2)c2cc(OC)c(OC)cc2c1=O` (stereo unspecified) the figure was inactive: > 76.9 µM; with `CCOc1ccc(N(Cc2cc3ccc(C)cc3[nH]c2=O)C(=O)COC)cc1`, inactive: > 76.9 µM; with `CC(=O)c1cccc(NC(=O)c2oc(C)nc2C)c1`, inactive: > 76.9 µM.
On to `COCCn1c(Cc2ccccc2)nnc1SCC(=O)NC(C)(C)C`, for which the Potency was inactive: > 76.9 µM.
In the case of `CCOC(=O)NC(Nc1nnc(C)s1)(C(=O)OCC)C(F)(F)F` (stereo unspecified), the Potency is inactive: > 76.9 µM.
Take `COCC(C)n1c(SCc2ccc(C(=O)OC)o2)nc2ccccc2c1=O` (stereo unspecified): the Potency is inactive: > 76.9 µM.
Regarding `O=C(CCN1CCN(c2ccccc2)CC1)Nc1ccccc1F`, the Potency is inactive: > 76.9 µM.
For `CCCCCNC(=O)c1cc(S(=O)(=O)N2CCCCC2)ccc1F`, the Potency is inactive: > 76.9 µM.
Turning to `CCc1nc(N)c(C#N)c(-c2ccc(O)c(OC)c2)c1C`, the Potency was inactive: > 76.9 µM.
Regarding `COc1ccccc1NC(=O)COc1ccc(CO)cc1Cl`, the Potency is inactive: > 76.9 µM.
As for `CC(=O)N1c2ccccc2C(C)CC12CCCCC2` (stereo unspecified), the figure is inactive: > 76.9 µM; as for `CC(=O)N(Cc1cc(=O)[nH]c2ccccc12)c1cccc(C)c1`, inactive: > 76.9 µM; as for `CC(C)C(C(=O)N1CCOCC1)N1C(=O)c2ccccc2C1=O` (stereo unspecified), inactive: > 76.9 µM.
As for `COc1ccccc1N1CCN(C(=O)c2ccc(Br)s2)CC1`, the figure is inactive: > 76.9 µM; as for `CCOC(=O)c1ccc(NC(=O)NC2CCN(CC(=O)NCc3ccc4c(c3)OCO4)CC2)cc1`, inactive: > 76.9 µM.
For `O=C(CSc1nnc(C2CCCCC2)n1-c1ccccc1)NCc1ccco1`, the Potency is inactive: > 76.9 µM.
Turning to `O=S(=O)(Cc1ccccc1Cl)N1CCCCC1`, the Potency is inactive: > 76.9 µM.
For `Cc1ccc(NS(=O)(=O)c2ccc(NC(=O)C3CCCO3)cc2)cc1` (stereo unspecified), the Potency was inactive: > 76.9 µM.
In the case of `Cc1cccn2c(=O)c3cc(C(=O)N4CCN(C(=O)c5ccco5)CC4)n(C)c3nc12`, the Potency was inactive: > 76.9 µM.
In the case of `CCOC(=O)c1c(N)sc(C(=O)Nc2ccc3c(c2)OCO3)c1C`, the Potency is inactive: > 76.9 µM.
Regarding `O=C(c1cccnc1)N1CCN(C(=O)c2cccs2)CC1`, the Potency was inactive: > 76.9 µM.
As for `Cc1cccc2cc(CN(Cc3ccccc3)C(=O)N(C)C)c(=O)[nH]c12`, the figure is inactive: > 76.9 µM.
As for `CC(C)N(CCO)C(=O)C(c1ccccc1)c1ccccc1`, the figure is inactive: > 76.9 µM; as for `c1ccc(CNn2nnnc2-c2ccccc2)cc1`, inactive: > 76.9 µM.
With `CCN(CC)S(=O)(=O)c1ccccc1/C=N\O` the figure was inactive: > 76.9 µM.
Consider `CCN(CC)C(=O)c1cncc(C(=O)N(CC)CC)c1-c1ccccc1`, for which the Potency was inactive: > 76.9 µM.
Regarding `Cc1cccc(C)c1NC(=O)CCCSc1nnnn1C`, the Potency was inactive: > 76.9 µM.
Regarding `O=C(OCC(=O)N1CCN(C(=O)COC(=O)c2ccncc2)CC1)c1ccncc1`, the Potency was inactive: > 76.9 µM.
